According to PubChem BioAssay (NCATS):
The inconclusive results got no clear call from the source; some entries with a clear call stand among them for comparison. Potencies of inconclusive entries are left out as doubtful fits. Calls of active or inactive are those of the source. The call rests on the fitted dose curve; in most records, active means well fitted curve in the direction sought with a large enough effect; inconclusive means small, poorly fitted or top-dose-only effect, or another doubt; inactive means no such curve, though single readings can be large; an effect the other way counts as inactive or inconclusive.

Legend:
[1] = qHTS for Inhibitors of Plasmodium falciparum (DD2) proliferation (AID 504314); conditions: P. falciparum Dd2 in erythrocytes, SYBR Green growth, 72 h; series mostly up to 6.11 µM
Method in brief: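 Normalization used 0.29 uM artemisinin as full inhibition and DMSO as baseline. Parasitized erythrocytes were exposed to compounds for 72 h (37C, 5% CO2), then lysed with saponin/Triton buffer containing SYBR Green I.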

[2] = qHTS for Inhibitors of Plasmodium falciparum (GB4) proliferation (AID 504315); further: nearly all actives have a fitted effect of over 50% in size; conditions: P. falciparum GB4 in erythrocytes, SYBR Green DNA, 72 h; activity change, negative = inhibition: at 6.7 µM (top of the series)
Method in brief: (§1)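 Parasite growth measured as SYBR Green DNA fluorescence (ex 485, em 535 nm) after overnight lysis following 72 h culture at 37 °C, 0.3% parasitemia, 2.5% hematocrit. Values normalized against DMSO and 0.29 uM artemisinin controls, with plate-stack correction.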

[3] = qHTS for Inhibitors of Plasmodium falciparum (7G8) proliferation (AID 504316); further: nearly all actives have a fitted effect of over 65% in size; conditions: P. falciparum 7G8 in erythrocytes, SYBR Green DNA, 72 h; activity change, negative = inhibition: at 6.7 µM (top of the series)
Method in brief: as §1

[4] = qHTS for Inhibitors of Plasmodium falciparum (HB3) proliferation (AID 504318); further: nearly all actives have a fitted effect of over 60% in size; conditions: P. falciparum HB3 in erythrocytes, SYBR Green DNA, 72 h; activity change, negative = inhibition: at 7.21 µM (top of the series)
Method in brief: as §1
Potency means the concentration at half of the fitted maximal effect; tags describe the fitted curve by direction and shape.

SMILES	Potency [1]	Potency [2]	Potency [3]	Potency [4]
C[C@H]1CC[C@H]2C(=O)O[C@H](COc3ccc(C(C)(C)C)cc3)CN2[C@H]1c1ccc(Br)cc1	inconclusive [inhibitor, single point]	inconclusive [inhibitor, single point]	inconclusive [inhibitor, single point]	active: 3290 nM
O=C(N[C@H](c1ccccc1)C1CCCC=C1c1ccccc1)C(F)(F)F (stereo partly specified)	inconclusive [inhibitor, single point]	inconclusive [inhibitor, single point]	inconclusive [inhibitor, single point]	inconclusive [inhibitor, single point]
COC(=O)C1=C(C(=O)OC)[C@@H]2N(C)c3ccc(OC)cc3[C@@]23C[C@@H](C(=O)OC)N(C(=O)N2CCNC2=O)C3=N1	inconclusive [inhibitor, single point]	inactive	inconclusive [inhibitor, partial curve, poor fit]	inconclusive [inhibitor, single point]
COC(=O)C1=C(C(=O)OC)[C@@H]2N(Cc3ccccc3)c3ccccc3[C@@]23C[C@@H](CO)N=C3N1	inconclusive [inhibitor, single point]	inconclusive [inhibitor, partial curve]	inconclusive [inhibitor, single point]	inconclusive [inhibitor, partial curve]
